Experimental data: ChEMBL document CHEMBL4888484, “Replenishing the malaria drug discovery pipeline: Screening and hit evaluation of the MMV Hit Generation Library 1 (HGL1) against asexual blood stage Plasmodium falciparum ,using a nano luciferase reporter read-out” (2022)
The campaign covered roughly 150,000 compounds. About 540 (0.36%) showed an effect of 50% or more. The list shows a part of the results.

These compounds were tested on Plasmodium falciparum (assay: Primary screen in NF54 nanoGlo assay, in single point, at 2uM, 72h; a lower Z score goes with more inhibition). Conditions: timepoint 72 hour.
Assay type: functional, Erythrocyte
In the case of `O=C(NCCc1ccc[nH]1)C1CC1c1ccc(F)c(F)c1` (stereo unspecified), the “% Inhibition” value is reported as -12% and the Z score is reported as 1.23. `Cc1ccc(=O)n(CC(=O)N(CC(F)(F)F)c2ccccc2)n1` was tested, and the “% Inhibition” value was -18% and the Z score was 3.42. `CC(C(=O)NCC1CCCO1)S(=O)(=O)CC(C)(C)C` (stereo unspecified) was tested, and the “% Inhibition” value was -5% and the Z score was 0.92. With `CCc1n[nH]c2c1CN(Cc1scnc1C)CC2` the “% Inhibition” value was -4% and the Z score was 0.59. For `Cc1nc2c(C(=O)N3CCC4(CC3)Cc3cn(nn3)CCCOc3ccc(cc3)CCNC4=O)cccc2[nH]1`, the “% Inhibition” value was -3% and the Z score was 0.63. With `Cc1scc(C(=O)NCCN2CCOCC2)c1C` the “% Inhibition” value was -8% and the Z score was 0.74. For `NC(=O)c1ccc(N2CCCCC2)c(N2C(=O)c3c(Cl)c(Cl)c(Cl)c(Cl)c3C2=O)c1`, the “% Inhibition” value was 13% and the Z score was -2.46. With `NC(=O)C1CCN(C(=O)c2cnn(-c3ncc4c(n3)-c3ccccc3CCC4)c2C2CC2)CC1` the “% Inhibition” value was -8% and the Z score was 1.12. `O=C([C@H]1CCN(c2cnn(Cc3ccccc3)c(=O)c2)C1)N1CCOCC1` was tested, and the “% Inhibition” value was -7% and the Z score was 0.96. In the case of `Nc1ccnc(CN2CCC[C@H](c3n[nH]c(-c4ccccc4)n3)C2)n1`, the “% Inhibition” value is reported as 14% and the Z score is reported as -1.93. With `O=S(=O)(N1CCOCC1)N(Cc1cscn1)c1ccccc1` the “% Inhibition” value was 0% and the Z score was -0.02. `CCN(C)C(=O)c1cccc(Nc2c(Oc3ccc4c(c3)OCO4)cnn(-c3ccc(C)cc3)c2=O)c1` was tested, and the “% Inhibition” value was -7% and the Z score was 0.89. For `Cc1c(C(=O)NC[C@H]2CCCN(CC(C)C)C2)cnn1C1CCCC1`, the “% Inhibition” value was -14% and the Z score was 1.53. In the case of `CCOCC(=O)N1CCC(c2ccsc2)CC1`, the “% Inhibition” value is reported as -11% and the Z score is reported as 1.64. `Cc1n[nH]c(C)c1CNCCc1ccsc1` was tested, and the “% Inhibition” value was -6% and the Z score was 0.79. With `O=C(O)c1ccc(CNC(=O)C2CC23CCc2ccccc23)s1` (stereo unspecified) the “% Inhibition” value was -2% and the Z score was 0.34. In the case of `O=C(Cn1c(CN2CCCCCC2)nc2ccccc21)N1CCCCCC1`, the “% Inhibition” value is reported as -10% and the Z score is reported as 1.48. `O=S(=O)(Nc1nc2c(s1)CCCC2)c1ccc2ccccc2c1` was tested, and the “% Inhibition” value was -5% and the Z score was 0.56. `COc1cc(NS(=O)(=O)c2cc3c(cc2Br)C[C@H](C)N3C(C)=O)cc(OC)c1` was tested, and the “% Inhibition” value was -5% and the Z score was 0.74. For `Cc1ccc(S(=O)(=O)NCC(=O)OCC(=O)N2CCCC2)cc1C`, the “% Inhibition” value was -7% and the Z score was 1. In the case of `Cc1ccn2c(NC(=O)CCc3ccccc3)c(CCc3ccccc3)nc2c1`, the “% Inhibition” value is reported as -9% and the Z score is reported as 1.65. For `O=C(c1cscn1)N1CC[C@H](Oc2cnsn2)C1`, the “% Inhibition” value was -7% and the Z score was 1.31. With `Cc1ccncc1CC(=O)NCC1(c2ccc(Br)cc2Cl)CC1` the “% Inhibition” value was -2% and the Z score was 0.19. For `c1cnc2c(CN3CC[C@@]4(CCCN(CC5CC5)C4)C3)cccc2c1`, the “% Inhibition” value was 8% and the Z score was -1.1. In the case of `CC(C)(CC(N)=O)NC(=O)c1cscn1`, the “% Inhibition” value is reported as -2% and the Z score is reported as 0.31. With `C[C@@H]([C@H](O)c1ccc(O)cc1)n1cnc2nccnc2c1=O` the “% Inhibition” value was -12% and the Z score was 2.35. With `CCCc1nn(-c2ccccc2Cl)c(C)c1C(=O)NCc1ccccn1` the “% Inhibition” value was -1% and the Z score was 0.28. In the case of `CC(C)C[C@H](NC(=O)c1cccnc1)c1nc2ccccc2[nH]1`, the “% Inhibition” value is reported as -19% and the Z score is reported as 2.4. In the case of `CCn1cc(CN2CCC[C@@]3(CO)CN(c4cnccn4)CC[C@H]23)cn1`, the “% Inhibition” value is reported as -5% and the Z score is reported as 0.99. `Cc1cccc(C(=O)NCCCCN2CCOCC2)n1` was tested, and the “% Inhibition” value was -4% and the Z score was 0.52. In the case of `O=C([C@H](c1ccccc1)n1cnnn1)N1CC[C@@]2(O)CCCC[C@H]2C1`, the “% Inhibition” value is reported as 6% and the Z score is reported as -0.67. For `Cc1ccc(C)c(CN(C)C(=O)c2cn3c(n2)CCC3)c1`, the “% Inhibition” value was -5% and the Z score was 0.66. For `CCOc1cc(C(=O)N(Cc2ccc(OC(F)F)c(OC)c2)C2CC2)ccc1OCc1ccccn1`, the “% Inhibition” value was 4% and the Z score was -0.41. For `Oc1cncc(-c2nc(-c3cc(F)c(F)c(F)c3)no2)c1`, the “% Inhibition” value was -11% and the Z score was 1.43. With `CC(CO)(NCC1CCOC1)c1cccc(O)c1` (stereo unspecified) the “% Inhibition” value was -9% and the Z score was 1.33. In the case of `Cn1cc([C@@H](NC(=O)c2ccc(-n3cnnn3)cc2)C2CC(O)C2)cn1` (stereo partly specified), the “% Inhibition” value is reported as -5% and the Z score is reported as 0.5. With `Cc1cncc(CCC(=O)N2C[C@H](CS(N)(=O)=O)[C@@H](C)C2)c1` the “% Inhibition” value was 12% and the Z score was -1.74. For `CC(C)(C)CC(=O)N1CC(Nc2ncccn2)C1`, the “% Inhibition” value was -11% and the Z score was 1.23. For `CN1CC2(CCN(C(=O)c3ccccc3O)CC2)C[C@@H](c2ccccc2)C1=O`, the “% Inhibition” value was -14% and the Z score was 1.81. In the case of `CCn1ncc2ccc(NC(=O)N[C@@H](C)C(=O)NCc3ccccc3)cc21`, the “% Inhibition” value is reported as 4% and the Z score is reported as -0.54. In the case of `O=C(c1conc1-c1ccccc1)N1CCN2C(=O)OC[C@H]2C1`, the “% Inhibition” value is reported as -2% and the Z score is reported as 0.41. For `Cc1noc(C)c1CCC(=O)NCc1cc2n(n1)CCN(C1CCCCC1)C2`, the “% Inhibition” value was -1% and the Z score was 0.18. In the case of `CCOC(=O)C[n+]1c(Cc2ccccc2)sc2ccccc21`, the “% Inhibition” value is reported as -19% and the Z score is reported as 2.87. For `Cc1nc2n(n1)C[C@@H](C(=O)N1CCCc3c(Cl)ccc(F)c31)CC2`, the “% Inhibition” value was -1% and the Z score was 0.11. For `COc1ccccc1CN(C(C)=O)C1CC(C)(C)N(C(C)=O)C(C)(C)C1`, the “% Inhibition” value was 1% and the Z score was -0.08. `C[C@]1(c2ccc(S(C)(=O)=O)cc2)NC(=O)N(c2ccc(Cl)cn2)C1=O` was tested, and the “% Inhibition” value was -27% and the Z score was 3.12. `Nc1ccc(C(=O)N2CCC3(CCC(=O)N(CCc4c[nH]cn4)C3)CC2)cn1` was tested, and the “% Inhibition” value was -15% and the Z score was 2.22. With `O=C(Cc1c[nH]c(=O)[nH]c1=O)N1CCC[C@H](c2[nH]ncc2Cc2ccccc2)C1` the “% Inhibition” value was -11% and the Z score was 1.07. With `Cn1c(OC2CCCC2)nc2cccnc21` the “% Inhibition” value was -5% and the Z score was 0.68. In the case of `Cc1ccc(CN2CCCN(c3ccc(C(=O)N4CCN(c5ccccc5)CC4)cc3)C2=O)cc1`, the “% Inhibition” value is reported as 8% and the Z score is reported as -1.36. For `CN(Cc1nc(Cc2ccccc2F)no1)CC1(N2CCOCC2)CCCCC1`, the “% Inhibition” value was -7% and the Z score was 0.93. In the case of `CC[C@@H](C#N)S(=O)(=O)N1CCN(CC)c2ccccc21`, the “% Inhibition” value is reported as 5% and the Z score is reported as -0.49. In the case of `CN1CCO[C@@H]2CN(C(=O)c3cnc4c(c3)c(C(C)(C)C)nn4C)C[C@@H]21`, the “% Inhibition” value is reported as -23% and the Z score is reported as 2.91.
